{"source": "the supplement of paper PMC4604168 (melanoma cell lines)", "note": "The other results are listed elsewhere or left out. Many values rest on one well or one pass, so single values are uncertain.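 Note: cells treated in 1,536-well plates, then fixed and DAPI-stained, with nuclei counted from automated high-throughput microscope images.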"}
{"tested_on": "A375", "assay": "cell count relative to DMSO control; melanoma cells; higher = more viable cells", "settings": "library dose: standard library concentration; 72 h", "units": {"cell count": "%"}}
{"smiles": "CCCCCCCCc1ccc(CCC(N)(CO)CO)cc1", "note": "[fingolimod] + CC1(C)NC(=O)N(c2ccc([N+](=O)[O-])c(C(F)(F)F)c2)C1=O [nilutamide] (first compound 10 µM, partner dose 5 µM)", "cell count": 88.4}
{"smiles": "CCCCCCCCc1ccc(CCC(N)(CO)CO)cc1", "note": "[fingolimod] + C[C@]1(c2nc3c(C(N)=O)cccc3[nH]2)CCCN1 [Veliparib] (first compound 10 µM, partner dose 7 µM)", "cell count": 76.5}
{"smiles": "CCCCCCCCc1ccc(CCC(N)(CO)CO)cc1", "note": "[fingolimod] + CN(c1ncccc1CNc1nc(Nc2ccc3c(c2)CC(=O)N3)ncc1C(F)(F)F)S(C)(=O)=O [PF562271] (first compound 10 µM, partner dose 0.4 µM)", "cell count": 60.5}
{"smiles": "CC(C)(C)c1cnc(CSc2cnc(NC(=O)C3CCNCC3)s2)o1", "note": "+ Cn1cncc1[C@@](N)(c1ccc(Cl)cc1)c1ccc2c(c1)c(-c1cccc(Cl)c1)cc(=O)n2C [tipifarnib] (first compound 0.05 µM, partner dose 0.05 µM)", "cell count": 84.5}
{"smiles": "CCCCCCCCc1ccc(CCC(N)(CO)CO)cc1", "note": "[fingolimod] + NCC(=O)Nc1ccc(-n2nc(C(F)(F)F)cc2-c2ccc3c(ccc4ccccc43)c2)cc1 [OSU03012] (first compound 10 µM, partner dose 5 µM)", "cell count": 11.9}
{"smiles": "CCCCCCCCc1ccc(CCC(N)(CO)CO)cc1", "note": "[fingolimod] + Cc1cc(N2CCOCC2)cc2[nH]c(-c3c(NC[C@@H](O)c4cccc(Cl)c4)cc[nH]c3=O)nc12 [BMS536924] (first compound 10 µM, partner dose 1 µM)", "cell count": 29.3}
{"smiles": "NC(=O)c1ccc(N(C(N)=O)c2c(F)cccc2F)nc1-c1ccc(F)cc1F", "note": "+ CC(C)C[C@H](NC(=O)[C@H](Cc1ccccc1)NC(=O)c1cnccn1)B(O)O [Bortezomib] (first compound 2 µM, partner dose 0.005 µM)", "cell count": 88.5}
{"smiles": "Cc1ccc(NC(=O)c2cccc(N(C)C)c2)cc1NC(=O)c1ccc(O)cc1", "note": "+ Oc1nc(-c2ccc(C(F)(F)F)cc2)nc2c1CSCC2 [XAV939] (first compound 10 µM, partner dose 10 µM)", "cell count": 110}
{"smiles": "CCCCCCCCc1ccc(CCC(N)(CO)CO)cc1", "note": "[fingolimod] + C[C@@H](Oc1cc(-c2cnn(C3CCNCC3)c2)cnc1N)c1c(Cl)ccc(F)c1Cl [Crizotinib] (first compound 10 µM, partner dose 1 µM)", "cell count": 33.4}
{"smiles": "CCCCCCCCc1ccc(CCC(N)(CO)CO)cc1", "note": "[fingolimod] + O=C(O)c1ccc2c(c1)nc(Nc1cccc(Cl)c1)c1ccncc12 [CX4945] (first compound 10 µM, partner dose 2 µM)", "cell count": 62.7}
{"smiles": "NC(=O)c1ccc(N(C(N)=O)c2c(F)cccc2F)nc1-c1ccc(F)cc1F", "note": "+ COc1ccc(Cl)c(Nc2nc3ccccc3nc2NS(=O)(=O)c2cccc(NC(=O)C(C)(C)N)c2)c1 [XL147] (first compound 2 µM, partner dose 4 µM)", "cell count": 86.5}
{"smiles": "CC(C)(C)c1cnc(CSc2cnc(NC(=O)C3CCNCC3)s2)o1", "note": "+ O=C(Nc1cccc(Cl)c1)Nc1ncc(CCNc2ncnc3ccsc23)s1 [SNS314] (first compound 0.05 µM, partner dose 0.004 µM)", "cell count": 96.8}
{"smiles": "CCCCCCCCc1ccc(CCC(N)(CO)CO)cc1", "note": "[fingolimod] + NC(=O)Nc1cc(-c2cccc(F)c2)sc1C(=O)N[C@H]1CCCNC1 [AZD7762] (first compound 10 µM, partner dose 0.1 µM)", "cell count": 18.7}
{"smiles": "NC(=O)c1ccc(N(C(N)=O)c2c(F)cccc2F)nc1-c1ccc(F)cc1F", "note": "+ Cc1ccc(NC(=O)c2cccc(N(C)C)c2)cc1NC(=O)c1ccc(O)cc1 [ZM336372] (first compound 2 µM, partner dose 10 µM)", "cell count": 87.4}
{"smiles": "NC(=O)c1ccc(N(C(N)=O)c2c(F)cccc2F)nc1-c1ccc(F)cc1F", "note": "+ C=CCn1c(=O)c2cnc(Nc3ccc(N4CCN(C)CC4)cc3)nc2n1-c1cccc(C(C)(C)O)n1 [MK1775] (first compound 2 µM, partner dose 0.1 µM)", "cell count": 54.2}
{"smiles": "NC(=O)c1ccc(N(C(N)=O)c2c(F)cccc2F)nc1-c1ccc(F)cc1F", "note": "+ Clc1ccc(Nc2nnc(Cc3ccncc3)c3ccccc23)cc1 [vatalanib] (first compound 2 µM, partner dose 10 µM)", "cell count": 83.7}
{"smiles": "CCCCCCCCc1ccc(CCC(N)(CO)CO)cc1", "note": "[fingolimod] + CO[C@@H]1[C@H](N(C)C(=O)c2ccccc2)C[C@H]2O[C@]1(C)n1c3ccccc3c3c4c(c5c6ccccc6n2c5c31)C(=O)NC4 [Midostaurin] (first compound 10 µM, partner dose 0.4 µM)", "cell count": 41.1}
{"smiles": "CCCCCCCCc1ccc(CCC(N)(CO)CO)cc1", "note": "[fingolimod] + COc1cc2c(Oc3ccc4[nH]c(C)cc4c3F)ncnc2cc1OCCCN1CCCC1 [cediranib] (first compound 10 µM, partner dose 2 µM)", "cell count": 46}
{"smiles": "NC(=O)c1ccc(N(C(N)=O)c2c(F)cccc2F)nc1-c1ccc(F)cc1F", "note": "+ COc1cc(Nc2ncc(F)c(Nc3ccc4c(n3)NC(=O)C(C)(C)O4)n2)cc(OC)c1OC [Tamatinib] (first compound 2 µM, partner dose 2 µM)", "cell count": 98.4}
{"smiles": "NC(=O)c1ccc(N(C(N)=O)c2c(F)cccc2F)nc1-c1ccc(F)cc1F", "note": "+ CN(NC(=O)CC(=O)NN(C)C(=S)c1ccccc1)C(=S)c1ccccc1 [STA4783] (first compound 2 µM, partner dose 0.03 µM)", "cell count": 92.4}
{"smiles": "NC(=O)c1ccc(N(C(N)=O)c2c(F)cccc2F)nc1-c1ccc(F)cc1F", "note": "+ C[C@]1(O)C[C@@H](c2nc(-c3ccc4ccc(-c5ccccc5)nc4c3)c3c(N)nccn32)C1 [OSI906] (first compound 2 µM, partner dose 2 µM)", "cell count": 78.5}
{"smiles": "NC(=O)c1ccc(N(C(N)=O)c2c(F)cccc2F)nc1-c1ccc(F)cc1F", "note": "+ Cn1cncc1[C@@](N)(c1ccc(Cl)cc1)c1ccc2c(c1)c(-c1cccc(Cl)c1)cc(=O)n2C [tipifarnib] (first compound 2 µM, partner dose 0.05 µM)", "cell count": 87.5}
{"smiles": "CCCCCCCCc1ccc(CCC(N)(CO)CO)cc1", "note": "[fingolimod] + CCCS(=O)(=O)Nc1ccc(F)c(C(=O)c2c[nH]c3ncc(Cl)cc23)c1F [PLX4720] (first compound 10 µM, partner dose 0.4 µM)", "cell count": 71.1}
{"smiles": "NC(=O)c1ccc(N(C(N)=O)c2c(F)cccc2F)nc1-c1ccc(F)cc1F", "note": "+ Oc1nc(-c2ccc(C(F)(F)F)cc2)nc2c1CSCC2 [XAV939] (first compound 2 µM, partner dose 10 µM)", "cell count": 105}
